Experimental findings from US20100162418A1 (Kyowa Kirin, published 2010) are described below.

For orientation: Kd means the equilibrium constant for the complex coming apart. The term koff denotes the first-order rate constant of dissociation. As a reminder, the kon is the second-order rate constant of association.

In test [1] the target is T1, human plasma-derived complement C1 inhibitor Berinert P (manufactured by CSL Behring) (human, UniProt P05155 23-500).
T1 construct: mature; Bought plasma protein
T1 sequence (looked up): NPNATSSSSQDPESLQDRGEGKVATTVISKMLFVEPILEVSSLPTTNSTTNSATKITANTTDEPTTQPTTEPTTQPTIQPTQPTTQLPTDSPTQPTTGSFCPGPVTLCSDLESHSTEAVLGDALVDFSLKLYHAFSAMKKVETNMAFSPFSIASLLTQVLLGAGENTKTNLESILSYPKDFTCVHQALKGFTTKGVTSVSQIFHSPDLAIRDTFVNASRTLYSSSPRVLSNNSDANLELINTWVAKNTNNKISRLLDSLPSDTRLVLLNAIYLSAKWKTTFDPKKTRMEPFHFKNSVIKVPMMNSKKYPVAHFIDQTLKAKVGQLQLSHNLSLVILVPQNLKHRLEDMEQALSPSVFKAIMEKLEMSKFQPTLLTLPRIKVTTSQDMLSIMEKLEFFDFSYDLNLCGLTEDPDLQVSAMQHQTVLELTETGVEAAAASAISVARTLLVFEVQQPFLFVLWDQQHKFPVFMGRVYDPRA
Kind of test: SPR (Biacore), C1 inhibitor immobilised on CM5, RAGE-Fc as analyte. The source says: (§1) Using an amine coupling kit (manufactured by Biacore), human plasma-derived Protein S (manufactured by Calbiochem), human plasma-derived complement C4 binding protein (C4BP; manufactured by BioMed), and human plasma-derived complement C1 inhibitor Berinert P (manufactured by CSL Behring) were respectively immobilized on flow cells of a CM5 sensor chip (manufactured by Biacore). An immobilized amount of the ligand protein on the respective flow cells was set to the range of 2400 to 3600 resonance units (hereinafter referred to as “RU”). The complement C4 binding protein and the complement C1 inhibitor are known as plasma glycoproteins having the anti-inflammatory effect. Then, a recombinant human RAGE-Fc fusion protein (manufactured by R&D Systems) diluted to given concentrations (50000, 25000, 12500, 6250, 3125, and 1562 ng/mL) using HBS-EP+buffer (manufactured by Biacore), as an analyte, was allowed to run and bind to the ligand-immobilized flow cells at a temperature of 25° C., a flow rate of 5 μL/min, association time of 140 seconds, and dissociation time of 240 seconds. The chip was regenerated by a flow of an aqueous glycine solution (pH 1.5) (manufactured by Biacore) for 60 seconds.
A general note: Surface plasmon resonance follows binding to a sensor surface in real time, without labels.

Test [2] has as its target T2, human plasma-derived Protein S (manufactured by Calbiochem) (human, UniProt P07225 42-676, gamma-carboxylated glutamic acid (Gla) in the N-terminal Gla domain; complex type N-glycoside-linked sugar chains (Asn458, Asn468, Asn489), partly with core alpha1,6-fucose (Fuc 0.26 per Man 3.00)).
T2 construct: Bought protein purified from human plasma; also called native Protein S; Human plasma Protein S
T2 sequence: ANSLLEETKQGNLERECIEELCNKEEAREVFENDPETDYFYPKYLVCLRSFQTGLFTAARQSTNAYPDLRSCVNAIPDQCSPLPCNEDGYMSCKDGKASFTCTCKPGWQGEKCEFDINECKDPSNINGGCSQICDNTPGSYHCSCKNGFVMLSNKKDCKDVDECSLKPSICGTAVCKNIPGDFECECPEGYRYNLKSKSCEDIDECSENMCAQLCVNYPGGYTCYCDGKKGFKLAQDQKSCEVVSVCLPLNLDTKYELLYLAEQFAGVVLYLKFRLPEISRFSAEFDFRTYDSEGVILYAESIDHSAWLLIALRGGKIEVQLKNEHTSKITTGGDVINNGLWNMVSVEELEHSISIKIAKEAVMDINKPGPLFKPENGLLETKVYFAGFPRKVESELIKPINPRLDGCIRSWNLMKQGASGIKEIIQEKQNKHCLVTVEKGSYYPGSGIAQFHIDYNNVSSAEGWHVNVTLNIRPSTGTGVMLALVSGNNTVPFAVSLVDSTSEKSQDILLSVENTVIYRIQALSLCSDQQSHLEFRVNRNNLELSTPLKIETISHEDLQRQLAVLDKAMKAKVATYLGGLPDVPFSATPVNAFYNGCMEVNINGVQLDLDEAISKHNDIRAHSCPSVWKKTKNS
Kind of test: SPR (Biacore T100), kinetic analysis, Protein S immobilised on CM5, RAGE-Fc as analyte. An excerpt:
(§2) Using an amine coupling kit (manufactured by Biacore), human plasma-derived Protein S (manufactured by Calbiochem), and recombinant human Protein S prepared in Example 4, MSPS and KCPS were respectively immobilized on flow cells of a CM5 sensor chip (manufactured by Biacore). An immobilized amount of the ligand protein on the respective flow cells was set to the range of 1500 to 2000 RU. Then, an anti-human Protein S antibody C-17 (manufactured by Santa Cruz) (FIG. 7), or a human plasma-derived complement C4 binding protein (manufactured by BioMed) diluted to given concentrations (50000, 25000, 12500, 6250, 3125, and 1562 ng/mL) using HBS-EP+buffer (manufactured by Biacore), as an analyte, was allowed to run and bind to the ligand-immobilized flow cells at a temperature of 25° C., a flow rate of 5 μL/min, association time of 140 seconds, and dissociation time of 240 seconds. The anti-human Protein S antibody C-17 and the human plasma-derived complement C4 binding protein are known to bind to the sex hormone-binding globulin-like domain (SHBG domain) at the carboxyl terminal of Protein S. The chip was regenerated by a flow of an aqueous glycine solution (pH 1.5) (manufactured by Biacore) for 60 seconds. Dissociation constants calculated by analysis of the obtained data using Biacore T100 evaluation software ver 1.1 (manufactured by Biacore) are given in Table 2 below.
(§3) Then, a recombinant human RAGE-Fc fusion protein (manufactured by R&D Systems) diluted to given concentrations (50000, 25000, 12500, 6250, 3125, and 1562 ng/mL) using HBS-EP+buffer (manufactured by Biacore), as an analyte, was allowed to run and bind to the ligand-immobilized flow cells at a temperature of 25° C., a flow rate of 5 μL/min, association time of 140 seconds, and dissociation time of 240 seconds (FIG. 8). The chip was regenerated by a flow of an aqueous glycine solution (pH 1.5) (manufactured by Biacore) for 60 seconds.

The target of test [3] is recombinant human Mac-1 heterodimer (alpha m beta 2 integrin, CD11b/CD18; manufactured by R&D Systems) (human, UniProt P11215; P05107). Kind of test: SPR (Biacore), Mac-1 immobilised on C1 chip, RAGE-Fc (50000, 5000, 500 ng/mL) as analyte. An excerpt: Using an amine coupling kit (manufactured by Biacore), human plasma-derived Protein S (manufactured by Calbiochem), human plasma-derived complement C4 binding protein (C4BP; manufactured by BioMed), and human plasma-derived complement C1 inhibitor Berinert P (manufactured by CSL Behring) were respectively immobilized on flow cells of a CM5 sensor chip (manufactured by Biacore). An immobilized amount of the ligand protein on the respective flow cells was set to the range of 2400 to 3600 resonance units (hereinafter referred to as “RU”). The complement C4 binding protein and the complement C1 inhibitor are known as plasma glycoproteins having the anti-inflammatory effect. Then, a recombinant human RAGE-Fc fusion protein (manufactured by R&D Systems) diluted to given concentrations (50000, 25000, 12500, 6250, 3125, and 1562 ng/mL) using HBS-EP+buffer (manufactured by Biacore), as an analyte, was allowed to run and bind to the ligand-immobilized flow cells at a temperature of 25° C., a flow rate of 5 μL/min, association time of 140 seconds, and dissociation time of 240 seconds. The chip was regenerated by a flow of an aqueous glycine solution (pH 1.5) (manufactured by Biacore) for 60 seconds. […]

Test [4] concerns the target T3, human plasma-derived sex hormone-binding globulin (SHBG) (manufactured by Scipac) (human, UniProt P04278 30-402).
T3 construct: mature; Bought plasma protein
T3 sequence (looked up): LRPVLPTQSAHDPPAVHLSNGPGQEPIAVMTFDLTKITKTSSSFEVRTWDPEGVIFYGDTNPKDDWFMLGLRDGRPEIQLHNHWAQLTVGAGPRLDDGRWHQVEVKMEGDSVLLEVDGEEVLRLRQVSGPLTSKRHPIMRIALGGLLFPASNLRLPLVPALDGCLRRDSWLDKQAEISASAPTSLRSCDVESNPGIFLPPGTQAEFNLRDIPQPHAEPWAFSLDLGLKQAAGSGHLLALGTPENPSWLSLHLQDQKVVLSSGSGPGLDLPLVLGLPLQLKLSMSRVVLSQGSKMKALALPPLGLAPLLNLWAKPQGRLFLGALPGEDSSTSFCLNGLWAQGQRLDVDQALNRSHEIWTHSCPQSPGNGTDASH
As to the kind of experiment: SPR (Biacore T100), human plasma-derived SHBG immobilised on CM5 chip, RAGE-Fc as analyte. As to the method:
The abscissa represents time (seconds), and the ordinate represents a binding activity of RAGE to SHBG on a sensor chip of Biacore T100. From the top, the sensorgram represents a value obtained at the time when RAGE was allowed to run at concentrations of 50000, 25000, 12500, 6250, 3125 and 0 ng/mL.
Next, using an amine coupling kit (manufactured by Biacore), human plasma-derived Protein S (manufactured by Calbiochem), recombinant human activated protein C preparation Xigris (manufactured by Eli Lilly), and human plasma-derived sex hormone-binding globulin (SHBG) (manufactured by Scipac) were respectively immobilized on flow cells of a CM5 sensor chip (manufactured by Biacore). An immobilized amount of the ligand protein on the respective flow cells was set to the range of 2000 to 3000 RU. Activated protein C and sex hormone-binding globulin are known as plasma glycoproteins having relatively high homology to Protein S, among the human proteins. Then, a recombinant human RAGE-Fc fusion protein (manufactured by R&D Systems) diluted to given concentrations (50000, 25000, 12500, 6250, 3125, and 1562 ng/mL) using HBS-EP+buffer (manufactured by Biacore), as an analyte, was allowed to run and bind to the ligand-immobilized flow cells at a temperature of 25° C., a flow rate of 5 μL/min, association time of 140 seconds, and dissociation time of 240 seconds. […]

Test [5] has as its target T4, recombinant human activated protein C preparation Xigris (manufactured by Eli Lilly) (human, UniProt P04070 43-197; P04070 212-461).
T4 construct: Bought preparation; also called APC
T4 sequence (P04070 43-197, chain 1 of 2): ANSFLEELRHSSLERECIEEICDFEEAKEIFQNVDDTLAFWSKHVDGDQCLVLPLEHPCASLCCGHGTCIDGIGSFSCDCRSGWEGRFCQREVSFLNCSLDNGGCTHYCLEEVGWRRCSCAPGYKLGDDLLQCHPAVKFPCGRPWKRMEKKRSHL
T4 sequence (P04070 212-461, chain 2 of 2): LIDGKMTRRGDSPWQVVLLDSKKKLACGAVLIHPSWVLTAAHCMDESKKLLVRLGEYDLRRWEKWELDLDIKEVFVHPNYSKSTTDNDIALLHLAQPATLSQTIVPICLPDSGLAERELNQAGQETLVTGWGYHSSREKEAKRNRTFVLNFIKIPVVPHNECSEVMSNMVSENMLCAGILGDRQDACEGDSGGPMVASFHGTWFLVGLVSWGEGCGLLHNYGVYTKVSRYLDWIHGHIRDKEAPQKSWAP
As to the kind of experiment: SPR (Biacore), activated protein C immobilised on CM5, RAGE-Fc as analyte. The source says:
Next, using an amine coupling kit (manufactured by Biacore), human plasma-derived Protein S (manufactured by Calbiochem), recombinant human activated protein C preparation Xigris (manufactured by Eli Lilly), and human plasma-derived sex hormone-binding globulin (SHBG) (manufactured by Scipac) were respectively immobilized on flow cells of a CM5 sensor chip (manufactured by Biacore). An immobilized amount of the ligand protein on the respective flow cells was set to the range of 2000 to 3000 RU. Activated protein C and sex hormone-binding globulin are known as plasma glycoproteins having relatively high homology to Protein S, among the human proteins. Then, a recombinant human RAGE-Fc fusion protein (manufactured by R&D Systems) diluted to given concentrations (50000, 25000, 12500, 6250, 3125, and 1562 ng/mL) using HBS-EP+buffer (manufactured by Biacore), as an analyte, was allowed to run and bind to the ligand-immobilized flow cells at a temperature of 25° C., a flow rate of 5 μL/min, association time of 140 seconds, and dissociation time of 240 seconds. The chip was regenerated by a flow of an aqueous glycine solution (pH 1.5) (manufactured by Biacore) for 60 seconds.

For test [6], the target named is T5, human plasma-derived complement C4 binding protein (C4BP; manufactured by BioMed) (human, UniProt P04003 49-597; P20851 18-252).
T5 construct: mature; Bought plasma protein; also called Human C4BP
T5 sequence (looked up) 1: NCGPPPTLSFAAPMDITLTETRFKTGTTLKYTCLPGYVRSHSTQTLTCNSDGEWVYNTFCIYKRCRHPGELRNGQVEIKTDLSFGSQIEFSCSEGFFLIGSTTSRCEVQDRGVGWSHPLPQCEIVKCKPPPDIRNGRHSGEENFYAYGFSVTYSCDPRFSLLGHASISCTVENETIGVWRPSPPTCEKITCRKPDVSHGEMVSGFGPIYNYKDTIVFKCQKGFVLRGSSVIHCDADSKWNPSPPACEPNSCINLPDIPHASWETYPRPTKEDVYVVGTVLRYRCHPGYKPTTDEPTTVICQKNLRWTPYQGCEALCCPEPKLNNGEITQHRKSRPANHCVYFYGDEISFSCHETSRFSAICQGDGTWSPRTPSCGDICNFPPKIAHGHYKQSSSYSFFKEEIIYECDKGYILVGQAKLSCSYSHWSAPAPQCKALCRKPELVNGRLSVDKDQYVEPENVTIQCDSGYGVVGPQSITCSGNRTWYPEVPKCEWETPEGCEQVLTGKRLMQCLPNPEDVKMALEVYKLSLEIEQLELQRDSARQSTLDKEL
T5 sequence (looked up) 2: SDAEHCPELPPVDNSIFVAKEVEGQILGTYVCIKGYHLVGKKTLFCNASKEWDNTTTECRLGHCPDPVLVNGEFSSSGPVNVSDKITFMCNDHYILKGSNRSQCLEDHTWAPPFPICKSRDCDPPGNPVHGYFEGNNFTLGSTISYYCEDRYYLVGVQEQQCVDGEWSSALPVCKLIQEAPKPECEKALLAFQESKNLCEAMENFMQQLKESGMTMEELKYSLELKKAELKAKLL
Kind of test: SPR (Biacore), C4BP immobilised on CM5, RAGE-Fc as analyte.
Text: as §1

For test [7], the target named is T6, MSPS, purified recombinant human Protein S obtained from FUT8 knockout CHO/DG44 cells (human, UniProt P07225 42-676, gamma-carboxylated glutamic acid (Gla) in the Gla domain; complex type N-glycoside-linked sugar chains without fucose (fucose not detected)).
T6 construct: It differs from KCPS only in glycosylation (no core fucose); also called fucose-free recombinant Protein S
T6 sequence: T2 sequence
As to the kind of experiment: SPR (Biacore T100), kinetic analysis, MSPS immobilised on CM5, RAGE-Fc as analyte.
Text: as §2, §3

B1: recombinant human RAGE-Fc fusion protein (manufactured by R&D Systems) (Fc fusion)
chain: not shown
notes: Bought fusion protein; also called recombinant soluble RAGE-human IgG1 Fc chimeric protein; not shown: Fc of human IgG1
In the case of B1, the binding result was “no binding (tested: up to 50000 ng/mL RAGE-Fc)” in test [1]; “binds” in test [3]; “no binding (tested: 50000 ng/mL)” in test [4]; “no binding (tested: up to 50000 ng/mL RAGE-Fc)” in test [5]; “no binding (tested: up to 50000 ng/mL RAGE-Fc)” in test [6]. In addition, the Kd in test [2] came to 49 nM; in test [7], 7.5 nM. Further, the koff in test [2] is 0.008 s⁻¹; in test [7], 0.04 s⁻¹. Besides, the kon is 160000 M⁻¹ s⁻¹ in test [2] and 5.1e+06 M⁻¹ s⁻¹ in test [7].
